Reference: PubChem BioAssay AID624417 (National Center for Advancing Translational Sciences (NCATS), 2012)
Where “and” joins values, the source holds several entries; their conditions need not be identical. Identical values can stand only once. Hit rate of the full screen: of about 410,000 compounds, about 6,400 (1.6%) were called active. This list was built around the results that the source calls inconclusive (neither active nor inactive); the mix of calls is not that of the screen. Calls come from the whole dose curve; as a rule, active = well fitted inhibition curve with a large enough effect; inconclusive = small, poorly fitted or top-dose-only effect; inactive = no such curve, though single readings can be large or run the other way. A potency beside an inconclusive call is a rough fit, not a confirmed value.

Target: Glucagon-like peptide 1 receptor (Homo sapiens) (UniProt P43220)
UniProt P43220, sequence (P43220 whole entry, looked up): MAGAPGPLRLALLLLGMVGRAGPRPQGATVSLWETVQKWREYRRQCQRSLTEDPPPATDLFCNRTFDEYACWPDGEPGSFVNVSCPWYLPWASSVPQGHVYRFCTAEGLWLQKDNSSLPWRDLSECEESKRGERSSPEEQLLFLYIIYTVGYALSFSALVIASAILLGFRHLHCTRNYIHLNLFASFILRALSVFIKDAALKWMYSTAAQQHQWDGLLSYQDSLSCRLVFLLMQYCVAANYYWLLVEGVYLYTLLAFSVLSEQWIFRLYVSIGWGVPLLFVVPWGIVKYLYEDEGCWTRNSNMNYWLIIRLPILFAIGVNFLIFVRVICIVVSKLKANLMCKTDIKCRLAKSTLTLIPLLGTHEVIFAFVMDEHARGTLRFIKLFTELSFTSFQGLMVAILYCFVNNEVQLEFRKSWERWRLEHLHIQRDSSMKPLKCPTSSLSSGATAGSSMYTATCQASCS
Experiment: qHTS of GLP-1 Receptor Inverse Agonists (Inhibition Mode); note: nearly all actives have a fitted effect of over 55% in size
Settings: HEK293 GLP-1R CRE-luciferase, luminescence, 24 h, GLP-1R form is constitutively active; activity change, negative = inhibition: at 38.3 µM (top of the series) unless noted
Outline: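 Inverse agonism was detected as reduced cAMP-driven luciferase luminescence after 24 h compound treatment. The cells were HEK293 clones expressing constitutively active human GLP-1R with the reporter. Reporter-only and GPR119 cell lines served as counterscreen controls.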
% is set by controls: 0 for no effect and ±100 for the full control effect; potency is the fitted concentration of half-maximal effect; tags give direction and shape of the fitted curve.

SMILES | Potency | activity change, negative = inhibition
CCn1ccnc1CN(C)C(=O)c1ccc(OC2CCN(CCc3ccccc3)CC2)cc1 | inconclusive: 28.2 µM [inhibitor, single point] | –
CC1CCN(C(=O)CSc2nnc(Cc3cccn3C)n2-c2ccc(F)cc2)CC1 | inconclusive: 11.2 µM [inhibitor, single point] | –
COc1ccccc1/C=N/OCc1ccc(C#N)cc1 | inconclusive: 28.2 µM [inhibitor, single point] | –
NC(=O)C1=CC2C3C=CC2(O)C(=O)OC3O1 (centres undefined) | inconclusive: 28.2 µM [inhibitor, single point] | –
COc1cccc(NC(=O)CN(C)CC(=O)Nc2ccc(C)c([N+](=O)[O-])c2)c1 | inconclusive: 12.6 µM [inhibitor, partial curve, poor fit] | –
O=C(CCn1cccn1)N1CCCC(N2CCN(c3cccc(C(F)(F)F)c3)CC2)C1 (centres undefined) | – | inactive: -16.3%
CCS(=O)(=O)c1ncc(N(Cc2ccco2)Cc2ccccc2F)c(C(=O)Nc2cccc(Cl)c2)n1 | active: 8.91 µM | –
Fc1ccc(NC(=S)NCCc2ccccc2)c(F)c1F | inconclusive: 28.2 µM [inhibitor, single point] | –
CCc1ccc(-c2nn(-c3ccccc3)cc2CSC(=N)N)cc1 | inconclusive: 11.2 µM [inhibitor, partial curve, poor fit] | –
O=C(Nc1ccc(Cl)cn1)c1cccc(S(=O)(=O)N2CCCCCC2)c1 | inconclusive: 14.1 µM [inhibitor, single point] | –
CN(C)c1oc(/C=C/c2cccs2)nc1S(=O)(=O)c1ccccc1 | – | inactive: 12.9%
CCOC(=O)CC(NC(=O)Cn1nnc(-c2ccccc2F)n1)c1ccccc1Cl (centres undefined) | inconclusive: 12.6 µM [inhibitor, single point] | –
COc1ccc(CCNC(=O)C2CCCN(c3ncccn3)C2)cc1 (centres undefined) | – | inactive: 4.34%
CCc1ccc(C2C(C(=O)Nc3ccccc3C)=C(C)Nc3nc(SCc4cccc(OC)c4)nn32)cc1 (centres undefined) | – | inactive: 1%
CN(CC(=O)Nc1ccc(Cl)c(C(F)(F)F)c1)C(=O)Cc1n[nH]c(=O)c2ccccc12 | inconclusive: 28.2 µM [inhibitor, single point] | –
Cc1ccc(-c2ccc(/C=C3\C(=O)ON=C3c3ccccc3)o2)c([N+](=O)[O-])c1 | – | inactive: 0.34%
Cc1ccc(Cn2ccc(NC(=O)c3c(-c4ccccc4Cl)noc3C)n2)cc1 | inconclusive: 8.91 µM [inhibitor, partial curve, poor fit] | –
C(=C\c1ccco1)/c1nc2ccccc2[nH]1 | inconclusive: 10 µM [inhibitor, single point] | –
COc1ccccc1NC(=O)COC(=O)c1[nH]c(=O)[nH]c(=O)c1N | – | inactive: 3.4%
COc1cccc(N=Nc2ccc(O)c3ncccc23)c1 | inconclusive: 11.2 µM [inhibitor, single point] | –
COc1ccc(NC(=O)Nc2ccc(C)cc2OC(F)F)cc1OC | inconclusive: 7.94 µM [inhibitor, partial curve, poor fit] | –
C/C(=N\N=C(/N)SC1CC(=O)N(c2ccc(Br)cc2)C1=O)c1cccs1 (centres undefined) | inconclusive: 8.91 µM [inhibitor, partial curve, poor fit] | –

SMILES | Potency | activity change, negative = inhibition
CCOC(=O)Nc1nc(-c2ccccc2)c(C(=O)c2ccccc2)s1 | inconclusive: 0.562 µM [inhibitor, full curve, poor fit] | –
CCCCCCCCCCOC(=O)Cn1c(COc2ccc(OC)cc2)[n+](C)c2ccccc21 | inconclusive: 10 µM [inhibitor, partial curve] and inconclusive: 28.2 µM [inhibitor, single point] | –
Cc1ccc(S(=O)(=O)N2C[C@H]3C(=O)C[C@@H](c4ccc(Cl)cc4)N(S(=O)(=O)c4ccc(C)cc4)[C@H]3C[C@H]2c2cccc3ccccc23)cc1 | – | inactive: 8.98%
N#Cc1ccc(-c2nc3ccc(Br)cc3c(=O)n2O)cc1 | – | inactive: 3.18%
Cc1ccsc1/C=N/NC(=O)Cc1ccc(Cl)cc1 | inconclusive: 11.2 µM [inhibitor, single point] | –
O=c1cc(-c2ccc(F)cc2)nc(SCc2nc(-c3ccc(Cl)cc3)no2)[nH]1 | – | inactive: 1.38%
Cc1nc(C)c(-c2csc(Nc3ccccn3)n2)s1 | inconclusive: 12.6 µM [inhibitor, single point] | –
CCCCCC(=O)Nc1cc(S(=O)(=O)N2CCCCC2)ccc1N1CCCCC1 | inconclusive: 11.2 µM [inhibitor, partial curve, poor fit] | –
Clc1ccc(OCCCCCN2CCCC2)c(Br)c1 | inconclusive: 11.2 µM [inhibitor, partial curve, poor fit] | –
CC(NC(=O)c1cc2cc(F)ccc2[nH]1)c1ccccc1 (centres undefined) | inconclusive: 10 µM [inhibitor, partial curve, poor fit] | –
CCCCNCCCOc1ccc(C)cc1Br | inconclusive: 12.6 µM [inhibitor, partial curve, poor fit] | –
CCOc1ccccc1/C=C(/NC(=O)c1ccccc1)C(=O)N1CCCCC1 | inconclusive: 28.2 µM [inhibitor, single point] | –
Nc1c(C(=O)Nc2ccccc2F)sc2nc(-c3cccnc3)ccc12 | – | inactive: -11.2%
c1ccc2c(c1)CCN(c1nc3cc4c(cc3s1)OCCO4)C2 | active: 7.08 µM | –
CCCCNC(=O)C1C(c2ccc(OC)cc2)=Nc2ccccc2N1C(=O)c1ccc2ncccc2c1 (centres undefined) | inconclusive: 28.2 µM [inhibitor, single point] | –
CCCC(=O)N1CCN(c2ccc(NC(=O)c3cc4ccccc4o3)cc2Cl)CC1 | inconclusive: 10 µM [inhibitor, single point] | –
O=C(NCc1ccc(F)cc1)c1cc2c(s1)CS(=O)(=O)C2 | – | inactive: 12.8%
CN(C)c1ccc(-c2noc(C3CCN(S(=O)(=O)c4cccc(C(=O)O)c4)CC3)n2)cc1 | inconclusive: 12.6 µM [inhibitor, single point] | –
O=S(=O)(c1ccc(F)c(F)c1F)N1CCN(C(=S)NCc2ccccc2)CC1 | inconclusive: 31.6 µM [inhibitor, partial curve, poor fit] | –
COc1ccccc1NC(=O)C1=C(C)Nc2c(C(=O)Nc3cccc(C)c3)cnn2C1c1ccccc1Cl (centres undefined) | inconclusive: 12.6 µM [inhibitor, single point] | –
O=C(CCN1C(=O)c2cccc3cccc(c23)C1=O)NC1CCS(=O)(=O)C1 (centres undefined) | – | inactive: 61.1%
COc1ccc(Cl)cc1NC(=O)c1c(NCc2cccnc2)sc2c1CCC(C)C2 (centres undefined) | – | inactive: -18.8%

SMILES | Potency | activity change, negative = inhibition
CS(=O)(=O)N(CC(=O)N1CCc2ccccc2C1)c1ccccc1F | – | inactive: -1.55%
Cc1ccccc1C(=O)N(Cc1sccc1C)C1CCS(=O)(=O)C1 (centres undefined) | – | inactive: -5.47%
CCc1n[nH]c(=S)n1/N=C/c1cc(OC)cc([N+](=O)[O-])c1O | – | inactive: -2.12%
CC(=O)c1cccc(-c2ccnc3c2CC(C(=O)Nc2ccc4c(c2)OCO4)O3)c1 (centres undefined) | inconclusive: 1.41 µM [inhibitor, full curve] | –
CN(C)C(CNC(=O)CCc1nc2cc(Cl)ccc2n(Cc2ccccc2)c1=O)c1ccccc1 (centres undefined) | inconclusive: 28.2 µM [inhibitor, single point] | –
CC1CC(C)CN(C(=O)C2CCC(CNS(=O)(=O)c3ccccc3)CC2)C1 (centres undefined) | inconclusive: 11.2 µM [inhibitor, single point] | –
CCCOc1ccc(CSc2nc3ccccc3[nH]2)cc1 | – | inactive: -5.8%
COc1ccc(NC(=O)c2cc(-c3ccc(C)c(C)c3O)n[nH]2)cc1Cl | inconclusive: 12.6 µM [inhibitor, single point] | –
Cc1c(CCC(=O)NCCCn2ccnc2)c(=O)oc2cc3occ(C(C)(C)C)c3cc12 | inconclusive: 11.2 µM [inhibitor, partial curve, poor fit] | –
CCc1ccc(CN(Cc2ccco2)C(=O)COc2ccc(Cl)cc2C)cc1 | inconclusive: 20 µM [inhibitor, single point] | –
COc1ccccc1C1CCN(C(=O)c2ccc(Cl)cc2)CC1 | inconclusive: 14.1 µM [inhibitor, single point] | –
COc1ccc([C@H]2CN(Cc3ccccc3)C(=O)[C@@H]2CC(=O)Nc2ccccc2)cc1 | inconclusive: 10 µM [inhibitor, partial curve, poor fit] | –
C[C@@H]1CN([C@H](C)CO)C(=O)c2cc(NC(=O)Nc3ccc(F)cc3)ccc2O[C@@H](C)CCCCO[C@H]1CN(C)S(=O)(=O)c1ccc(Cl)cc1 | inconclusive: 8.91 µM [inhibitor, partial curve, poor fit] | –
CN(C)S(=O)(=O)c1ccc(C(=O)Nc2ccc(CN3CCCC3)cc2)cc1 | inconclusive: 12.6 µM [inhibitor, partial curve, poor fit] | –
O=C(NCc1ccc2c(c1)OCO2)C1CC(c2cccc(Br)c2)=NO1 (centres undefined) | inconclusive: 10 µM [inhibitor, partial curve] | –
CC1=C(C(=O)N2CCCC(N3CCN(c4cccc(C(F)(F)F)c4)CC3)C2)OCCO1 (centres undefined) | inconclusive: 8.91 µM [inhibitor, partial curve, poor fit] | –
Cc1cccc(NC(=O)c2c(C)nn(-c3ccccc3)c2Cl)c1 | inconclusive: 28.2 µM [inhibitor, single point] | –
COc1ccc2sc(N(CCN(C)C)C(=O)/C=C/c3cccs3)nc2c1 | inconclusive: 28.2 µM [inhibitor, single point] | –
CCCC[C@@H]1CN=C(N)N1CCc1cc(C(F)(F)F)cc(C(F)(F)F)c1 | inconclusive: 14.1 µM [inhibitor, single point] | –
O=C(CS(=O)(=O)Cc1ccccc1)Nc1nc2c(s1)CCCC2 | inconclusive: 12.6 µM [inhibitor, single point] | –
